Some of the results follow. These are noisy estimates, calculated here from bound and input reads.

The assay concerns the target T1, Pho4 (S. cerevisiae) (UniProt P07270).
T1 sequence: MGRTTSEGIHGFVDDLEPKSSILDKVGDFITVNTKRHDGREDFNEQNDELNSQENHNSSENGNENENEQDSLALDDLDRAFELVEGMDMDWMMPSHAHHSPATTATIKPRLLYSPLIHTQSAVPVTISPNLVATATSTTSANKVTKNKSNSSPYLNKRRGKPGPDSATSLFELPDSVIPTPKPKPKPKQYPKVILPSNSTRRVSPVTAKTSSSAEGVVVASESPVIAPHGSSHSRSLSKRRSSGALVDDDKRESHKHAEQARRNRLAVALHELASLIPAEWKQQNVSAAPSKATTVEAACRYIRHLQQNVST
The assay can be described thus: relative binding free energy (BET-seq); higher = weaker binding. The note with it: reference: library average.
TTATTCACGTGGAAAT: the “relative binding free energy” value is 0.36 kcal/mol. As to CTGTGCACGTGGGAGA, the “relative binding free energy” value was -0.05 kcal/mol.

As to GTAGGCACGTGGACTT, the “relative binding free energy” value was -0.05 kcal/mol. For the sequence TGCCGCACGTGTGGAG, the “relative binding free energy” value was -0.05 kcal/mol. Turning to CGAGTCACGTGGGGAG, the “relative binding free energy” value came to 0.01 kcal/mol. Regarding GGAAGCACGTGGATGA, the “relative binding free energy” value was -0.01 kcal/mol. Consider GTTGACACGTGAGGAT, for which the “relative binding free energy” value was 0.31 kcal/mol. For TTAATCACGTGTGTAT the value was 0.14 kcal/mol; for TGTGGCACGTGAGTGC, 0.12 kcal/mol.

On to GTCGGCACGTGGAGGC, for which the “relative binding free energy” value stood at 0.12 kcal/mol. As for TAATTCACGTGTATAT, the figure is 0.27 kcal/mol; as for TCTGTCACGTGCGAGG, 0.19 kcal/mol. In the case of TAGGTCACGTGTGAGA, the “relative binding free energy” value came out at 0.14 kcal/mol.

With ACTATCACGTGTAGTT, the “relative binding free energy” value stood at 0.15 kcal/mol. For AGATACACGTGGTTAT, the “relative binding free energy” value was found to be 0.04 kcal/mol.

Regarding TGGTCCACGTGTTGGG, the “relative binding free energy” value came out at 0.07 kcal/mol. In the case of ATTGACACGTGGTGGC, the “relative binding free energy” value worked out at 0.01 kcal/mol. For the sequence AGATGCACGTGACGTG, the “relative binding free energy” value is 0.15 kcal/mol. As to TTTTACACGTGGGATA, the “relative binding free energy” value was -0.05 kcal/mol.

TAACGCACGTGTAGGG: the “relative binding free energy” value stood at 0 kcal/mol.

On to TGTACCACGTGTGTGT, for which the “relative binding free energy” value was -0.16 kcal/mol. Turning to GTAAGCACGTGAGAGG, the “relative binding free energy” value was 0.24 kcal/mol. Regarding AGTTTCACGTGTAGTA, the “relative binding free energy” value came out at 0.34 kcal/mol.

In the case of AAGGGCACGTGGGTAG, the “relative binding free energy” value is -0.22 kcal/mol. Consider CAGGACACGTGGGGGA, for which the “relative binding free energy” value is -0.09 kcal/mol. For CTGTACACGTGGATAT the value was 0.19 kcal/mol; for ATTGTCACGTGATGGA, 0.25 kcal/mol.

On to GGATGCACGTGCCGGT, for which the “relative binding free energy” value was -0.02 kcal/mol. For AGCAGCACGTGGTATG the value was -0.18 kcal/mol; for GTGAACACGTGCTGTG, -0.11 kcal/mol; for GGGACCACGTGTGGGT, -0.01 kcal/mol.

Turning to CTTTTCACGTGAGAAT, the “relative binding free energy” value was determined as 0.42 kcal/mol. In the case of GGGAACACGTGGGTCT, the “relative binding free energy” value was -0.08 kcal/mol. For AGAGACACGTGAGGTT, the “relative binding free energy” value is 0.29 kcal/mol. Turning to CGGTACACGTGTGTGA, the “relative binding free energy” value was 0.13 kcal/mol. As to GGCTGCACGTGGGGCA, the “relative binding free energy” value was -0.08 kcal/mol. GAGTCCACGTGTTAGT: the “relative binding free energy” value came out at 0.32 kcal/mol. As for TATCGCACGTGTTTGT, the figure is -0.02 kcal/mol. Consider GTTGGCACGTGGAAGC, for which the “relative binding free energy” value came out at 0.02 kcal/mol.

Turning to TGTTTCACGTGCGGTG, the “relative binding free energy” value worked out at 0.32 kcal/mol.

For the sequence GATAGCACGTGTGGCT, the “relative binding free energy” value is 0.14 kcal/mol.

Regarding GTTTACACGTGATTTA, the “relative binding free energy” value turned out to be 0.36 kcal/mol.

For AGGTGCACGTGCGTAG, the “relative binding free energy” value is -0.11 kcal/mol. Consider TTTTGCACGTGGAGTA, for which the “relative binding free energy” value is -0.03 kcal/mol. As for AGGTCCACGTGGTTTA, the figure is -0.06 kcal/mol; as for GAGGACACGTGTTGTT, 0.16 kcal/mol; as for ATTCGCACGTGGGAGG, -0.22 kcal/mol. As to ATTCGCACGTGTGGGC, the “relative binding free energy” value was -0.1 kcal/mol. As for TGTTTCACGTGTCGAT, the “relative binding free energy” value amounted to 0.32 kcal/mol. Take GTGGTCACGTGGTTGG: the “relative binding free energy” value came to 0.22 kcal/mol.

As for GTTTGCACGTGTGGCT, the “relative binding free energy” value was found to be 0.06 kcal/mol. On to GCATGCACGTGTCGGG, for which the “relative binding free energy” value is -0.03 kcal/mol.

On to CTTTTCACGTGAGTTG, for which the “relative binding free energy” value is 0.27 kcal/mol. For GGTACCACGTGGTAGG the value was -0.13 kcal/mol; for TGTGGCACGTGCAGGG, -0.03 kcal/mol; for AGGTTCACGTGTACGT, 0.33 kcal/mol.

On to GGATACACGTGTAGGT, for which the “relative binding free energy” value came to 0.17 kcal/mol. Turning to TGATGCACGTGGGGAC, the “relative binding free energy” value is -0.23 kcal/mol. As for GGGTGCACGTGGTGTA, the figure is -0.08 kcal/mol; as for GTCTGCACGTGTAGGG, 0.06 kcal/mol; as for TATGCCACGTGGTGCA, -0.11 kcal/mol. As to GAGTGCACGTGTGTTG, the “relative binding free energy” value was determined as 0.16 kcal/mol. In the case of TGTTTCACGTGCTTAT, the “relative binding free energy” value was 0.31 kcal/mol. For TCCTGCACGTGGTGGA the value was -0.06 kcal/mol; for TACGTCACGTGTTGTG, 0.14 kcal/mol; for CATTGCACGTGTCGTG, -0.04 kcal/mol. As to GTTCGCACGTGGGATA, the “relative binding free energy” value was -0.12 kcal/mol. Regarding TTAGGCACGTGCTGTA, the “relative binding free energy” value is -0.18 kcal/mol.

As for TATGACACGTGTGTAA, the “relative binding free energy” value was -0.01 kcal/mol. For the sequence GTATGCACGTGCGGCG, the “relative binding free energy” value is -0.17 kcal/mol.

Take GGGATCACGTGTGGTG: the “relative binding free energy” value stood at 0.23 kcal/mol. Take ATAGCCACGTGGTGTA: the “relative binding free energy” value is -0.23 kcal/mol. For the sequence AGGTGCACGTGGAGGT, the “relative binding free energy” value is -0.02 kcal/mol. On to GTGTGCACGTGTAATC, for which the “relative binding free energy” value came to 0.13 kcal/mol. Turning to GGGGTCACGTGGCATA, the “relative binding free energy” value is -0.01 kcal/mol. ATTGTCACGTGGCTCT: the “relative binding free energy” value was -0.05 kcal/mol. AGCGGCACGTGGCGGG: the “relative binding free energy” value is -0.24 kcal/mol. For ATATACACGTGTCGGG the value was 0.04 kcal/mol; for AGTTTCACGTGTCATG, 0.15 kcal/mol. As for ACTGTCACGTGTTGTG, the figure is -0.01 kcal/mol; as for GGTTGCACGTGCCGGG, 0.11 kcal/mol.

Take ATTCTCACGTGTGTGG: the “relative binding free energy” value worked out at 0.3 kcal/mol. For the sequence GGATGCACGTGTAAGG, the “relative binding free energy” value is 0.05 kcal/mol. Take ACGGTCACGTGTCTGG: the “relative binding free energy” value came to 0.06 kcal/mol.

Regarding AGTTTCACGTGGTTGC, the “relative binding free energy” value is 0.2 kcal/mol. For TGGAGCACGTGTTTGC, the “relative binding free energy” value was -0.13 kcal/mol. For the sequence CTGGGCACGTGGCCGT, the “relative binding free energy” value was -0.11 kcal/mol. Consider GGGGGCACGTGGCTGG, for which the “relative binding free energy” value was -0.11 kcal/mol.

AGCGTCACGTGCGAGG: the “relative binding free energy” value turned out to be 0.05 kcal/mol. CTTGGCACGTGGTGAG: the “relative binding free energy” value is -0.17 kcal/mol. GGATGCACGTGCATGG: the “relative binding free energy” value was determined as 0 kcal/mol. In the case of ATTTGCACGTGGGGGC, the “relative binding free energy” value was -0.06 kcal/mol. Take AATTGCACGTGCGCTG: the “relative binding free energy” value was found to be 0.03 kcal/mol. Take AAATGCACGTGGGTAG: the “relative binding free energy” value is -0.09 kcal/mol.

TTAAGCACGTGTGGTA: the “relative binding free energy” value was -0.06 kcal/mol.

On to ATTGGCACGTGAGCTG, for which the “relative binding free energy” value is 0.1 kcal/mol. GGAATCACGTGGGGGT: the “relative binding free energy” value was 0.01 kcal/mol. Take TTGAGCACGTGTTAGC: the “relative binding free energy” value is -0.02 kcal/mol.

Turning to TTTTACACGTGGTCCT, the “relative binding free energy” value amounted to 0.05 kcal/mol. In the case of CATATCACGTGCGGTT, the “relative binding free energy” value worked out at 0.15 kcal/mol.

For TTCGTCACGTGGATAG, the “relative binding free energy” value was 0.13 kcal/mol.

Turning to TGGAACACGTGTTGGC, the “relative binding free energy” value was -0.03 kcal/mol. Take TGACACACGTGAGGGT: the “relative binding free energy” value was determined as 0.18 kcal/mol. As for GATTACACGTGGAAGG, the figure is 0.11 kcal/mol; as for TGCTACACGTGTCGGT, 0.14 kcal/mol; as for ACTTTCACGTGGTTTG, 0.33 kcal/mol. Regarding TTTAGCACGTGGACGA, the “relative binding free energy” value is -0.12 kcal/mol. In the case of ATAGGCACGTGCGGTT, the “relative binding free energy” value was -0.11 kcal/mol. As to ATGGGCACGTGTTAGA, the “relative binding free energy” value is 0.03 kcal/mol.

In the case of CGGATCACGTGGGCGG, the “relative binding free energy” value was 0.03 kcal/mol.

With TTCATCACGTGTTTTA, the “relative binding free energy” value was found to be 0.16 kcal/mol. TTTTTCACGTGATGAA: the “relative binding free energy” value came out at 0.25 kcal/mol.

Consider AAGTGCACGTGGGTCG, for which the “relative binding free energy” value is -0.17 kcal/mol. In the case of TACTGCACGTGGGTTA, the “relative binding free energy” value is -0.1 kcal/mol. On to TGGATCACGTGGACTT, for which the “relative binding free energy” value stood at 0.18 kcal/mol. As to GTAATCACGTGCAGGT, the “relative binding free energy” value stood at 0.19 kcal/mol. In the case of GCAAACACGTGTGGGG, the “relative binding free energy” value was determined as 0 kcal/mol. For GGCTTCACGTGGGAAG the value was 0.25 kcal/mol. GGACGCACGTGGATGT: the “relative binding free energy” value came to 0 kcal/mol. In the case of AAGTTCACGTGAGTTC, the “relative binding free energy” value was 0.53 kcal/mol. For CTGAGCACGTGAGGGC, the “relative binding free energy” value was found to be 0.26 kcal/mol. CTTGACACGTGTTGGT: the “relative binding free energy” value turned out to be 0.06 kcal/mol.

On to ATATGCACGTGGTCTT, for which the “relative binding free energy” value was -0.07 kcal/mol. TTTGACACGTGTGAGA: the “relative binding free energy” value is 0.15 kcal/mol. With TGGCCCACGTGAGGGG, the “relative binding free energy” value is 0.09 kcal/mol.

For GGGTACACGTGAGGGG, the “relative binding free energy” value was found to be 0.36 kcal/mol. Consider ATTGTCACGTGATGGG, for which the “relative binding free energy” value turned out to be 0.24 kcal/mol. In the case of GGGAGCACGTGTAGTT, the “relative binding free energy” value was -0.13 kcal/mol. As to TATGGCACGTGTTGAG, the “relative binding free energy” value was -0.12 kcal/mol.

Consider TAAAACACGTGGGATT, for which the “relative binding free energy” value is -0.06 kcal/mol.

For TTTCACACGTGGCTGG, the “relative binding free energy” value worked out at 0.02 kcal/mol. Regarding ATTTCCACGTGGTAGG, the “relative binding free energy” value was 0 kcal/mol.

On to AGTGGCACGTGAGAAG, for which the “relative binding free energy” value worked out at 0.13 kcal/mol. As for TTAGGCACGTGGTCAT, the figure is -0.24 kcal/mol; as for AGGGCCACGTGTTGTG, -0.03 kcal/mol; as for GCTGTCACGTGTGAGA, 0.19 kcal/mol. Consider CGTTTCACGTGTAATG, for which the “relative binding free energy” value came to 0.18 kcal/mol. Consider TTAGTCACGTGTAAGA, for which the “relative binding free energy” value was determined as 0.06 kcal/mol.

Regarding AGGGACACGTGGGCCG, the “relative binding free energy” value is -0.12 kcal/mol. In the case of AGGGTCACGTGAGTGG, the “relative binding free energy” value was determined as 0.3 kcal/mol. As for TTCTGCACGTGGGTGT, the figure is -0.14 kcal/mol. With AAGGTCACGTGAGTTC, the “relative binding free energy” value worked out at 0.37 kcal/mol. As for TTATGCACGTGTGGGT, the “relative binding free energy” value is 0.06 kcal/mol.

Regarding TTGAACACGTGGAGCT, the “relative binding free energy” value is 0.12 kcal/mol. As for TCTGCCACGTGAGGGT, the “relative binding free energy” value came to 0.23 kcal/mol. For CTTTTCACGTGGGGTT the value was -0.04 kcal/mol.

Source of the values: the BET-seq Pho4 binding data (Le et al. 2018).
